Assay results published in paper PMC12040169 (PLOS Biology, 2025).
The list shows a part of the results.

tested on: T1, C. trachomatis L2/434/Bu expressing GFP (CTL2-GFP); parameters: species or system HeLa; C. trachomatis total inclusion area by high-content imaging, normalised to DMSO; details: total inclusion area; 28.5 h, 10 µM; inhibitor
T1 construct: L2/434/Bu GFP intracellular growth in HeLa cells
Method in brief: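 High-content imaging followed the bulk GFP/resorufin measurement: fixed, Hoechst-stained cells were scored for GFP inclusions and host nuclei per well. Total inclusion area and count served as growth proxies, nuclei number as the viability proxy. MIC calculation matched the bulk assay.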

Row | Structure (SMILES) | % of control remaining
1 | CC(C)Nc1nc(NC(C)C)nc(Oc2ccc(C=O)cc2)n1 [CBK265043] | 92.7219
2 | O=C(Nc1ccc2[nH]ccc2c1)c1cnc(-c2ccc(F)cc2)c(-c2ccncc2)c1 [CBK037451] | 95.6982
3 | Cc1ccc(OCC(=O)NNC(=O)C2COc3ccccc3O2)cc1 (centres unmarked) [CBK263511] | 100.486
4 | O=C(O)CC1S/C(=N/N=C/c2ccc(-c3cccc([N+](=O)[O-])c3)o2)NC1=O (centres unmarked) [CBK264517] | 97.6568
5 | CCCc1cc(=O)[nH]c2nnc(SCC(=O)NC)n12 [CBK287685] | 116.256
6 | O=C1CC(c2ccc3c(c2)OCO3)c2ccc3ccccc3c2N1 (centres unmarked) [CBK087469] | 92.4364
7 | O=c1cc(O)c2cc([N+](=O)[O-])ccc2n1CCc1ccccc1 [CBK291165] | 124.612
8 | COc1cc(CNc2nc(-c3c(C)cccc3C)cn3ccnc23)cc(OC)c1OC [CBK037415] | 108.863
9 | COc1ccc([C@@]23CC[C@@H](NS(=O)(=O)Cc4ccccc4)C[C@@H]2N(C)CC3)cc1OC [CBK056665T] | 77.9253
10 | O=C1N[C@@H](Cc2ccc(F)cc2)C(=O)N2CCN(C(=O)c3cccc(F)c3)C[C@H]12 [CBK289600] | 73.2377
11 | O=C(NS(=O)(=O)c1ccccc1)c1ccccc1 [CBK288429] | 67.7292
12 | COC(=O)c1cn([C@H]2CO[C@H]3[C@@H]2OC[C@H]3OC(=O)Nc2ccccc2)nn1 [CBK289492] | 105.556
13 | Cc1noc(C)c1CC(=O)Nc1nc2c(cc1C#N)CCCC2 [CBK306429] | 41.4802
14 | O=[N+]([O-])c1ccc(N2CCN(S(=O)(=O)Cc3ccccc3)CC2)cc1N1CCN(Cc2ccccc2)CC1 [CBK264951] | 83.0788
15 | O=C(c1nccc2ccccc12)N1CCN(Cc2ccccc2)CC1 [CBK200176] | 113.402
16 | CCNC(=O)Nc1ccc2ccc(-c3cccnc3)nc2n1 [CBK070652] | 80.7084
17 | Cc1sc2nc(C(C)C)n(C3CCNCC3)c(=O)c2c1C [CBK282407] | 101.172
18 | COc1cccc(C(NC(=O)C2CCN(C(=O)c3ccccc3)CC2)c2ccccn2)c1 (centres unmarked) [CBK060036] | 99.6871
19 | COCCNC(=O)c1ccc(-c2cc(C(C)C)ccc2OC)nc1N(C)C [CBK106061] | 106.716
20 | CC1(CNC(=O)c2ccc(N3CCCCC3)cc2)COC1 [CBK281746] | 81.1833
21 | CC1CCN(CC(O)c2ccc3c(c2)CCCN3C(=O)C2CC2)CC1 (centres unmarked) [CBK282488] | 117.504
22 | O=C(O)CCCn1cc(NC(=O)Cc2ccccc2F)cn1 [CBK270119] | 101.101
23 | CS(=O)(=O)Nc1cc2ccccc2c(-c2ccncc2)n1 [CBK085746] | 94.6861
24 | COc1cc(/C=N/n2cnnc2)ccc1OCc1cccc(C(=O)O)c1 [CBK264249] | 93.0765
25 | CCn1c(C)nn(-c2nc3c(Cl)cccc3s2)c1=O [CBK026010] | 36.2683

Row | Structure (SMILES) | % of control remaining
26 | Cc1ccc2c(c1)C(NC(=O)C1CC1C)CC1(CCOCC1)O2 (centres unmarked) [CBK284880] | 98.1675
27 | C=CCN1CC2(c3ccccc3)CN(CC=C)CC(c3ccccc3)(C1)C2=O [CBK265987] | 90.439
28 | CC1CN(c2ccc(CNc3ncccc3C#N)cn2)CCO1 (centres unmarked) [CBK305957] | 65.1142
29 | Nn1cnn2c(SCC(=O)Nc3ccc(Cl)cc3)nnc12 [CBK025688] | 86.7934
30 | O=c1[nH]c2ncc(-c3ccc(-c4ccccc4)cc3)nc2n1Cc1cccnc1 [CBK064282] | 131.999
31 | O=C(COC(=O)c1cc(S(=O)(=O)N2CCCCC2)c(Cl)cc1Cl)c1ccccc1 [CBK261668] | 92.3243
32 | CN(CC(=O)N1CCOCC1)S(=O)(=O)c1ccc2ccccc2c1 [CBK266946] | 98.2081
33 | COc1cc(Nc2cc(-c3cccc(N)c3)nc3ccnn23)cc(OC)c1OC [CBK037236] | 83.0671
34 | CCCc1ccc(N(C)C(=O)c2ccc(C(C)(C)C)cc2)cc1 [CBK161612] | 66.8839
35 | OCCN1CCN(c2ccc(/C=C/c3ccccc3)cn2)CC1 [CBK036849] | 122.279
36 | Cc1ccc(C)c(NC(=O)CSc2nnc(CCc3ccccc3)n2C)c1 [CBK266365] | 98.0743
37 | CC1CN(Cc2ccccc2)CCN1c1cnccn1 (centres unmarked) [CBK013684] | 60.1322
38 | COc1ccc(-c2cnc3[nH]c(=O)n(Cc4ccccc4)c3n2)cc1 [CBK064210] | 111.367
39 | CCCc1cc(C(=O)NC(c2ccccc2)c2cccnc2)[nH]n1 (centres unmarked) [CBK282462] | 133.939
40 | CC(NC(=O)Cn1cnc2ccccc21)c1ccccn1 (centres unmarked) [CBK281884] | 98.3438
41 | O=C1CCCN1c1ccc(CN2CCN(C3CCCC3)C(=O)C2)cc1 [CBK281908] | 111.247
42 | CCOC(=O)C(NC(=O)c1c(C)nn(C)c1C)c1cccc(C)c1C (centres unmarked) [CBK304253] | 41.0639
43 | CCOC(=O)c1cnn2c(C)cc(C)nc12 [CBK101119] | 87.36
44 | COC(=O)C(NC(=O)c1cnc(-c2cccc(C(F)(F)F)c2)c(-c2ccncc2)c1)c1ccccc1 (centres unmarked) [CBK037624] | 119.207
45 | COc1ccc(CN2CCCC(c3nc(C)n4ccccc34)C2)cc1 (centres unmarked) [CBK282984] | 84.9408
46 | c1ccc(CN2CCN(c3ccc(Nc4cc(-c5ccncc5)ncn4)cc3)CC2)cc1 [CBK037727] | 118.761
47 | O=C(O)Cc1csc(SCc2cc(F)cc3c2OC(c2ccccc2)OC3)n1 (centres unmarked) [CBK295158] | 133.792
48 | COc1cccc([C@H]2CC[C@H](N(CCN(C)C)C(=O)Nc3cc(F)ccc3F)CC2)c1OC [CBK050184] | 51.612
49 | CCc1nnc(COC(=O)c2ccccc2NC(=O)Cc2ccccc2)o1 [CBK296762] | 76.9812
50 | CCNC(=O)N1CCc2c([nH]c3ccc(OC)cc23)C12CCN(CCOc1ccccc1)C2 (centres unmarked) [CBK061690] | 94.49
